Test results taken from the supplement of paper PMC8285479.
Structures can show the parent of a compound that is named as a salt. ± gives the standard deviation of the averaged measurements. In all, about 1,900 compounds were measured (“normalised cell viability (NPI; 0 = phenylarsine oxide control, 1 = DMSO control)”: median about 1, lowest 2% from about 0.039 on). The list shows a part of the results.

Test system: NCI-H1944
Experiment: normalised cell viability (NPI; 0 = phenylarsine oxide control, 1 = DMSO control) (fraction of DMSO control); NCI-H1944 is a non-small cell lung cancer line; higher = more viable cells (less compound toxicity)
Conditions: 6 days
[1] = glucocorticoid arm: hydrocortisone 2.75 uM co-treatment, compound 1 µM
[2] = glucocorticoid arm: hydrocortisone 2.75 uM co-treatment, compound 5 µM
[3] = glucocorticoid arm: hydrocortisone 2.75 uM pre-treated 2 days and continued, compound 1 µM
[4] = glucocorticoid arm: hydrocortisone 2.75 uM pre-treated 2 days and continued, compound 5 µM
[5] = glucocorticoid arm: vehicle, compound 1 µM
[6] = glucocorticoid arm: vehicle, compound 5 µM
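Further: CTB read-out in 384-well plates, mean of triplicate wells, normalised per plate against 1 µM phenylarsine oxide and 0.1% DMSO, compounds added 24 h after seeding.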

SMILES	normalised cell viability [1]	normalised cell viability [2]	normalised cell viability [3]	normalised cell viability [4]	normalised cell viability [5]	normalised cell viability [6]
O=C1Cc2c([nH]c3ccc(Br)cc23)-c2ccccc2N1 [Kenpaullone]	1.03 ± 0.011	1.1 ± 0.025	1.03 ± 0.01	1.11 ± 0.1	0.99 ± 0.0076	1 ± 0.014
Nc1nc(Cl)nc2c1ncn2[C@@H]1O[C@H](COP(=O)(O)OP(=O)(O)OP(=O)(O)O)[C@H](O)C1O (some centres undefined) [2-Chloroadenosine triphosphate tetrasodium]	0.992 ± 0.0076	0.818 ± 0.041	0.988 ± 0.018	0.917 ± 0.019	0.987 ± 0.0044	0.981 ± 0.0056
CN(C)Cc1cccc(N=C(c2ccccc2)c2c(O)[nH]c3cc(C(=O)N(C)C)ccc23)c1	0.961 ± 0.02	0.785 ± 0.024	0.9773 ± 0.0065	0.832 ± 0.048	0.987 ± 0.012	0.938 ± 0.03
NC[C@@H](O)c1ccc(O)c(O)c1 [L(-)-Norepinephrine bitartrate]	1 ± 0.018	0.971 ± 0.011	1 ± 0.021	0.968 ± 0.0085	0.98 ± 0.017	0.9767 ± 0.0011
Cc1cc(Cn2cnc3c2C[C@@H](C(=O)O)N(C(=O)C(c2ccccc2)c2ccccc2)C3)ccc1N	1.03 ± 0.01	1.01 ± 0.022	1.023 ± 0.0058	1.01 ± 0.014	1.027 ± 0.0058	1.02
CCCCCCC(=O)OC1CC(C)(C)NC(C)(C)C1 [TMPH hydrochloride]	1.006 ± 0.0075	1.01 ± 0.018	1.007 ± 0.0058	1.03 ± 0.1	0.9897 ± 0.0059	1 ± 0.018
Oc1cc2c(cc1O)CN(C(=S)NCCc1ccc(Cl)cc1)CCC2 [Capsazepine]	0.994 ± 0.0056	1.02 ± 0.021	0.99 ± 0.012	0.994 ± 0.015	0.9793 ± 0.0032	0.993 ± 0.01
CCCCCCCC/C=C\CCCCCCCC(=O)NCCO [N-Oleoylethanolamine]	1.013 ± 0.0058	1.03 ± 0.026	1.01 ± 0.013	1.05 ± 0.073	1.006 ± 0.0069	1.02 ± 0.011
CNCC[C@@H](Oc1ccc(C(F)(F)F)cc1)c1ccccc1 [R-(-)-Fluoxetine hydrochloride]	0.999 ± 0.011	0.92 ± 0.014	1.013 ± 0.0058	1.02 ± 0.029	0.995 ± 0.0036	0.9947 ± 0.005
CCN(CC)C(=O)/C(C#N)=C/c1cc(O)c(O)c([N+](=O)[O-])c1 [Entacapone]	0.976 ± 0.019	0.992 ± 0.017	0.975 ± 0.014	0.9927 ± 0.0087	0.993 ± 0.016	0.998 ± 0.0035
C[C@]12C=CC(=O)C=C1CC[C@H]1[C@@H]3C[C@@H](O)[C@](O)(C(=O)CO)[C@@]3(C)C[C@H](O)[C@@]12F [Triamcinolone]	1.007 ± 0.0058	1.02 ± 0.015	0.885 ± 0.2	1.03 ± 0.01	0.954 ± 0.022	0.851 ± 0.015
COc1cccc2cc(-c3nc([C@H]4CC[C@H](C(=O)O)CC4)n4ncnc(N)c34)[nH]c12	0.734 ± 0.025	0.472 ± 0.006	0.7097 ± 0.0042	0.638 ± 0.093	0.799 ± 0.035	0.411 ± 0.054
NC1CCN(O)C1=O (racemic)	0.983 ± 0.011	0.999 ± 0.011	0.9857 ± 0.0051	0.984 ± 0.023	0.985 ± 0.013	0.98733 ± 0.00058
CCN(CC)CCOC(=O)c1ccc(N)cc1 [Procaine hydrochloride]	0.992 ± 0.0046	0.9923 ± 0.0067	1.01 ± 0.027	0.973 ± 0.012	0.9793 ± 0.0051	0.9873 ± 0.0047
Cn1ccnc1 [1-Methylimidazole]	0.989 ± 0.0096	1.01 ± 0.031	1 ± 0.0089	1.04 ± 0.1	1.003 ± 0.0064	1.01 ± 0.01
O=c1[nH]c2cc(C(F)(F)F)ccc2n1-c1cc(C(F)(F)F)ccc1O	1.01	1.03 ± 0.017	1.01	1.07 ± 0.085	0.992 ± 0.003	1 ± 0.018
N[C@@H](CCCC(=O)O)C(=O)O [L-2-aminoadipic acid]	0.9947 ± 0.0055	0.991 ± 0.015	0.997 ± 0.013	0.97 ± 0.018	0.979 ± 0.014	0.9823 ± 0.0067
O=c1cc(-c2ccccc2)[nH]c2nc(Cl)ccc12 [7-Chloro-4-hydroxy-2-phenyl-1,8-naphthyridine]	1.003 ± 0.0063	1.02	1.002 ± 0.0068	1.01 ± 0.014	0.995 ± 0.005	0.776 ± 0.41
O=c1[nH]c(=O)c2nc3ccccc3nc2[nH]1 [Alloxazine]	0.998 ± 0.011	1.03 ± 0.015	1.01 ± 0.011	1.025 ± 0.0071	0.9967 ± 0.004	1.01
N#C/C(=C\c1ccc(O)c(O)c1)C(=O)NCCc1ccccc1 [Tyrphostin AG 698]	1.017 ± 0.0058	1.02 ± 0.015	0.876 ± 0.25	0.994 ± 0.014	1.033 ± 0.0058	1.033 ± 0.0058
CC(=O)O[C@H]1C[C@@]2(C)[C@@H](C[C@@H](O)[C@H]3[C@@]4(C)CC[C@@H](O)[C@@H](C)[C@@H]4CC[C@@]32C)/C1=C(\CCC=C(C)C)C(=O)O [Fusidic acid sodium salt]	0.997 ± 0.013	0.985 ± 0.018	0.999 ± 0.021	0.996 ± 0.03	0.991 ± 0.0095	0.993 ± 0.0046
CC(=O)N[C@@H](CS)C(=O)O [N-Acetyl-L-Cysteine]	1.003 ± 0.0064	1 ± 0.017	1 ± 0.016	0.961 ± 0.024	0.9913 ± 0.0075	0.986 ± 0.0027
C[C@]1(c2nc3c(C(N)=O)cccc3[nH]2)CCCN1 [Veliparib (ABT-888)]	0.983 ± 0.011	0.972 ± 0.012	0.979 ± 0.01	0.975 ± 0.014	0.996 ± 0.014	0.984 ± 0.0089
NC(=O)OCC(COC(N)=O)c1ccccc1 [Felbamate]	1.013 ± 0.0058	0.989 ± 0.016	1.017 ± 0.0058	1 ± 0.033	1.013 ± 0.0058	1.01 ± 0.01
